# Hit rate of the full screen: of about 420,000 compounds, about 64,000 (15%) were called active. This list was built around the results that the source calls inconclusive (neither active nor inactive); the mix of calls is not that of the screen. Calls follow the shape of the dose curve; as a rule, active = well fitted inhibition curve with a large enough effect; inconclusive = small, poorly fitted or top-dose-only effect; inactive = flat fitted curve, though single readings scatter. Potencies of inconclusive entries are left out as doubtful fits.
# Assay: qHTS for Inhibitors of human tyrosyl-DNA phosphodiesterase 1 (TDP1): qHTS in cells in absence of CPT; also: nearly all actives have a fitted effect of over 55% in size
# Details: DT40 Tdp1-/- hTDP1 cells, no CPT, ATP luminescence, 48 h; activity change, negative = growth inhibition: at 46.2 µM (top of the series) unless noted
# How it was run: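 No-CPT arm: Tdp1-/-;hTDP1 DT40 cells (400/well) plus compounds, incubated ≥48 hr at 37 °C. Readout CellTiter-Glo luminescence.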
# % is scaled to controls: 0 for no effect and ±100 for the full control effect; potency is read from the fitted curve at half-maximal effect; tags tell the direction and shape of the fitted curve.
SMILES,Potency,"activity change, negative = growth inhibition"
CCc1c(C(=O)NNC(=S)NCc2ccccc2)csc1C,"inconclusive [inhibitor, partial curve]",
O=C(NCc1ccc(Cl)cc1)C(=O)Nc1ccc(Br)cc1,,inactive: -3.04%
O=C(OCc1cn([C@@H]2CN(CC3CCCCC3)[C@@H](c3ccccc3)C[C@H]2O)nn1)c1ccccc1,active: 18.4 µM,
COC(=O)c1c(NC(=O)c2ccc(C)o2)sc2c1CCCCC2,"inconclusive [inhibitor, partial curve]",
CC(C)c1ccc(NC(=O)c2cc3c([nH]c2=O)CC(C)(C)CC3=O)cc1,"inconclusive [inhibitor, single point]",
COc1ccc(OC2CCN(C(=O)Nc3ccc(C)cc3)CC2)cc1,"inconclusive [inhibitor, partial curve]",
Cc1cccc(-n2ncc(C#N)c2N)c1,,inactive: -4.99%
CC(C)(C)c1ccc(OCc2nc(-c3ccccn3)no2)c(Br)c1,"inconclusive [inhibitor, single point]",
COc1ccc(S(=O)(=O)N2CCCC2c2cccs2)cc1 (stereo not given),active: 8.2 µM,
FC(F)(F)Oc1ccccc1-c1nnc(-c2cccc(C(F)(F)F)c2)o1,,inactive: -9.66%
COc1ccccc1NS(=O)(=O)c1ccc(NN=C2CCCCC2)c([N+](=O)[O-])c1,active: 25.9 µM,
CCOC(=O)c1cc2c(OC)c(OC)ccc2c2[nH]cc(C#N)c(=O)c12,"inconclusive [inhibitor, partial curve, poor fit]",
CCc1ccc(NC(=O)CCC(=O)Nc2nnc(C(F)(F)F)s2)cc1,,inactive: 0.419%
CCCCOC(=O)c1ccc(NC(=O)C(=O)NCc2ccccn2)cc1,,inactive: -29.2%
Cc1c(Br)c([N+](=O)[O-])nn1C(C)C(=O)N1CCCc2ccccc21 (stereo not given),active: 16.4 µM,
CCc1cccc(NC(=O)Cn2c(=O)n(Cc3ccccc3)c(=O)c3c2c2cc(OC)ccc2n3C)c1,"inconclusive [inhibitor, full curve, poor fit]",
CN(CC1CCCO1)S(=O)(=O)c1ccc(C(=O)Nc2ccc([N+](=O)[O-])cc2)cc1 (stereo not given),active: 5.8 µM,
COC(=O)[C@@]12C[C@@H](CC(=O)NCCc3ccccc3OC)C(=O)N(Cc3ccco3)C1=CCC(C)(C)C2,"inconclusive [inhibitor, single point]",
Cc1c(C2=CCN(S(=O)(=O)c3ccc(Cl)cc3)CC2)c2ccccc2n1C,"inconclusive [inhibitor, partial curve, poor fit]",
CN(C)S(=O)(=O)c1ccc2c(c1)C(=NNC(N)=O)c1cc(S(=O)(=O)N(C)C)ccc1-2,"inconclusive [inhibitor, partial curve]",
